According to PubChem BioAssay AID1745845 (National Center for Advancing Translational Sciences (NCATS), 2022):
Among all 360,000 compounds or so, about 2,600 (0.72%) were called active. Inconclusive results, whose numbers are uncertain, are shown with a selection of clear calls. The call rests on the fitted dose curve; in most records, active means well fitted inhibition curve with a large enough effect; inconclusive means small, poorly fitted or top-dose-only effect; inactive means no such curve, though single readings can be large or run the other way. Potencies of inconclusive entries are doubtful fits and often do not repeat.

experiment: Primary qHTS for Inhibitors of ATXN expression; settings: HEK-293 ATXN2-luciferase reporter, luminescence, 24 h; activity change, negative = inhibition: at 57 µM (top of the series); further: nearly all actives have a fitted effect of over 55% in size
Summary of the method: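 ATXN2-luciferase reporter cells (luciferase flanked by upstream and downstream ATXN2 gene portions) were treated 24 h at 37 °C with compounds at up to 57 uM. SteadyGlo luminescence gave expression; GF-AFC fluorescence gave viability.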
On the % scale 0 is the no-effect control and ±100 the full control effect; potency means the concentration at half of the fitted maximal effect; tags describe the fitted curve by direction and shape.

Activity change, negative = inhibition, inactive:
CCCCC1=NN2C(=N)CC(=O)N=C2S1 6.31%, Fc1ccc(-c2cc(-c3ccccc3)c3c(n2)-c2cc(F)ccc2OC3)cc1 -5.72%, COC(=O)c1ccc(NC(=O)C(=O)NCCc2sc(-c3cccc(F)c3)nc2C)cc1 4.2%, CCC1=NN(C(=O)COc2ccccc2C)C(O)(c2ccncc2)C1 (stereo unspecified) -2.45%, COc1ccc(-c2nc(N)ncc2-c2ccccc2OC)c(O)c1 -9.27%, COC(=O)[C@]1(Cc2ccccc2)N[C@H](CN(C)C(=O)Nc2ccccc2)[C@@H]2C(=O)N(Cc3ccccc3)C(=O)[C@@H]21 1.49%, O=C(c1ccccc1)C(c1ccccc1)c1ccccc1 7.33%, CCOc1ccc(C(=O)n2cc(C(=O)OC)c3ccccc32)cc1OCC 12%

Activity change, negative = inhibition, inconclusive:
CC1(C)N=C(N)N=C(N)N1c1ccc(Oc2ccc(Cl)cc2)c(Cl)c1 -55.7% [inhibitor]

Potency, inconclusive:
COc1cccc(OCc2nc3ccccc3n2CCOc2ccccc2C)c1 39.8 µM [inhibitor, single point], COC(=O)[C@@]12CCCN1[C@H](c1ccc(-c3ccc(Cl)c(Cl)c3)c(OC)c1)[C@H]1C(=O)N(C)C(=O)[C@H]12 35.5 µM [inhibitor, single point], O=c1c2ccccc2oc2cc(C#CC3(O)CCCCC3)ccc12 39.8 µM [inhibitor, single point], C[C@H](NC(=O)C1(c2ccccc2)CCN(C(=O)[C@H]2CSCN2C(=O)OC(C)(C)C)CC1)C(=O)O 35.5 µM [inhibitor, single point], CCOc1ccc(C(=O)N/N=C/c2cccc3cccnc23)cc1 39.8 µM [inhibitor, single point], CCOC(=O)c1ccc(NC(=O)CCc2nc(-c3ccccc3Cl)no2)cc1 39.8 µM [inhibitor, single point], O=C(CN1c2cccc3cccc(c23)S1(=O)=O)NCc1ccc(Cl)cc1 31.6 µM [inhibitor, single point], CC1=NOC(=O)/C1=C\c1ccc(-c2ccccc2Br)o1 33.6 µM [inhibitor, single point], C[C@@H]1CN([C@@H](C)CO)S(=O)(=O)c2ccc(Br)cc2O[C@H]1CN(C)Cc1ccc(-c2ccccc2)cc1 12.6 µM [inhibitor, partial curve], Nc1[nH]c(C(=O)c2ccccc2)c(-c2ccc(F)cc2)c1C(=O)NCCc1c[nH]c2ccccc12 39.8 µM [inhibitor, single point], COc1ccc(-c2cc3nccn3c(Nc3ncccc3C(N)=O)n2)cc1OC 19.3 µM [inhibitor, partial curve], CCOc1cc(NC(=O)c2ccco2)c(OCC)cc1NC(=O)COc1ccccc1C 15.8 µM [inhibitor, partial curve], COc1ccc(CCC(=O)Nc2nc3ccc(Cl)cc3s2)cc1OC 8.63 µM [inhibitor, full curve], Cc1ccccc1N/C(SCc1ccc(Cl)cc1)=C(/C#N)C(=O)NCc1ccco1 12.6 µM [inhibitor, partial curve, poor fit], CC(=O)Nc1cccc(Oc2ncnc3scc(-c4ccc(C)cc4)c23)c1 31.6 µM [inhibitor, partial curve, poor fit], COC(=O)C(C)(C)c1cccnc1C#N 17.8 µM [inhibitor, partial curve, poor fit], COc1ccc(NC(=S)N(CCC(C)C)C2CCN(C(C)C)CC2)cc1Cl 3.16 µM [inhibitor, single point], COc1ccc([C@H]2/C=C\CN(C(=O)C3CCCC3)[C@@H](C)C(=O)N2Cc2ccc(F)cc2)cc1 15.8 µM [inhibitor, single point], COc1cccc(NC(=O)CSc2nc3ncc(Br)cc3[nH]2)c1 31.6 µM [inhibitor, single point], C[C@@H]1CN([C@H](C)CO)C(=O)c2cc(NC(=O)Nc3ccc(C(F)(F)F)cc3)ccc2O[C@H]1CN(C)Cc1ccc(Cl)c(Cl)c1 35.5 µM [inhibitor, single point], O=C(CSc1nnc(-c2cccs2)n1-c1ccccc1)Nc1ccccc1 39.8 µM [inhibitor, single point], COC(=O)C1C=CC(OC2OC(COC(C)=O)C(OC(C)=O)C(OC(C)=O)C2OC(C)=O)n2c(=O)n(-c3ccccc3)c(=O)n21 (stereo unspecified) 39.8 µM [inhibitor, single point], CCC(=O)OCCNc1cc(Sc2nccn2C)c2nonc2c1[N+](=O)[O-] 39.8 µM [inhibitor, single point], Cc1ccc(C(=O)N2c3ccccc3N(Cc3ccccc3)C(=O)C2(C)C)cc1 14.1 µM [inhibitor, partial curve], CCCCOc1ccc(C(=O)CCN2CCCCC2)cc1 31.6 µM [inhibitor, partial curve, poor fit], CCCc1ccc(OCc2ccc(C(=O)N/N=C/c3cccc([N+](=O)[O-])c3)o2)c(OC)c1 10 µM [inhibitor, partial curve], O=C(Nc1nc2ccccc2n1CCOc1ccc(Cl)cc1)c1ccco1 2.82 µM [inhibitor, partial curve, poor fit], O=C(Nc1cccc(Cl)c1)NC1(C(=O)NCc2cccs2)CCCCC1 15.8 µM [inhibitor, partial curve, poor fit]

Potency, active:
CCCC(=O)NC(c1ccc(OC)cc1)c1ccc2cccnc2c1O (stereo unspecified) 1.89 µM, CCOC(=O)c1c(NC(=O)COC(=O)c2ccccc2NC)sc(C(=O)N(C)C)c1C 31.6 µM, Cc1nn(-c2ccccc2)c(Cl)c1CN(C(=O)CCl)c1ccc(Cl)cc1 14.1 µM, COc1ccc(C(=O)N/N=C/c2cccc3cccnc23)cc1 22.4 µM
